The values below come from paper PMC4336329 (PLoS ONE, 2015).

SMILES strings stand for the structures. Out of some 310,000 compounds screened, about 14,000 (4.5%) showed an effect of 50% or more. Effects have a minus sign here. The list shows a part of the results.
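Further: peak tail current of the secondary pulse compared with the same well before compound.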

human ether-à-go-go-related gene (hERG) potassium channel, sequence (Q12809 whole entry, looked up): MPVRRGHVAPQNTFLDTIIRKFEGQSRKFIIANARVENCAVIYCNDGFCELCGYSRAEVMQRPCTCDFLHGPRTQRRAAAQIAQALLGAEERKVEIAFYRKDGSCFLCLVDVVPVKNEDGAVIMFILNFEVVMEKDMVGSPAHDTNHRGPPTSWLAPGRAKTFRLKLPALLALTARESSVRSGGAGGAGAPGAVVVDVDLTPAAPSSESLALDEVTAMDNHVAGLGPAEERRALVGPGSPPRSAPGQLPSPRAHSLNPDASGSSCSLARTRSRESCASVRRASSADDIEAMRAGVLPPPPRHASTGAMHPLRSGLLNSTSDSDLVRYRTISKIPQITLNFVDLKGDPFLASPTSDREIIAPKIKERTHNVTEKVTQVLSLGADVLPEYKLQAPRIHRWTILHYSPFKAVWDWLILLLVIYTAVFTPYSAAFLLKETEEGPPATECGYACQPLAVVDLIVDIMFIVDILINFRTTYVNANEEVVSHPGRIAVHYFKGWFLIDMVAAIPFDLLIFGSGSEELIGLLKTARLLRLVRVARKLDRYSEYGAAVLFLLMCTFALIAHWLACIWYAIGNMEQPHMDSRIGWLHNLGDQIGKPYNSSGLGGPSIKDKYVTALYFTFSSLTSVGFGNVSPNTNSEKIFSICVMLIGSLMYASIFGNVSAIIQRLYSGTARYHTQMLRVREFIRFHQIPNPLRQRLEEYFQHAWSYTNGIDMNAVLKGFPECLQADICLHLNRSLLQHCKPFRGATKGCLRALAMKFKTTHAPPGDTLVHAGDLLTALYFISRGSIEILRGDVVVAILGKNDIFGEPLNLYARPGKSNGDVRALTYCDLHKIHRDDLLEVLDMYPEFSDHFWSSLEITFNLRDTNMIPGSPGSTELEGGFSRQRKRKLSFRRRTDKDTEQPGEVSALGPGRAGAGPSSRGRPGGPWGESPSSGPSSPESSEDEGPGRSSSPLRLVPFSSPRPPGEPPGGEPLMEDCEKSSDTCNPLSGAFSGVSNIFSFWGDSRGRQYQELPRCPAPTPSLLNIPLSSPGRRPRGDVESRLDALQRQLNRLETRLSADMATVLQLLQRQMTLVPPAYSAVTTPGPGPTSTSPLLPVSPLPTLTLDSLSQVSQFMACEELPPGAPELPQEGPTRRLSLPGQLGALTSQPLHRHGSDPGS

The test concerns the target human ether-à-go-go-related gene (hERG) potassium channel (human, UniProt Q12809). As to the kind of experiment: primary screen, population patch clamp on CHO cells stably expressing hERG.
Consider `O=C(NCc1ccccc1Cl)C1CCC(=O)N(C2CC2)C1` (stereo not drawn), for which the “hERG current change (%, negative = inhibition) at 10uM” value was 20.4%.
In the case of `CCCCc1cc(=O)oc2c(CN3CCCC3)c(O)ccc12` it was -47.6%; in that of `CN(C(=O)c1cccs1)C1(C)CCS(=O)(=O)C1` (stereo not drawn), 35.4%.
For `O=c1[nH]c(CSc2ncc(C(F)(F)F)cc2Cl)nc2cc(C(F)(F)F)ccc12`, the “hERG current change (%, negative = inhibition) at 10uM” value was 5.42%.
With `CCOc1ccc(/C(C)=N\NC(=O)Cc2ccccc2)cc1`, the “hERG current change (%, negative = inhibition) at 10uM” value is reported as -1.3%.
In the case of `Cc1cc(=O)oc(C)c1C(=O)OCC(=O)c1ccc2ccccc2c1`, the “hERG current change (%, negative = inhibition) at 10uM” value is listed as -2.33%.
Turning to `CCCCC(=O)Nc1ccc2c(c1)nc(CN1CCN(C(=O)OCC)CC1)n2C`, the “hERG current change (%, negative = inhibition) at 10uM” value is reported as 4.4%.
Turning to `COc1ccccc1N1CCN(C(=O)c2ccccc2NC(=O)C2CCCCC2C(=O)O)CC1` (stereo not drawn), the “hERG current change (%, negative = inhibition) at 10uM” value was 15.6%.
With `COc1ccc(C)cc1N(C(=O)CNC(=O)c1ccco1)C(C(=O)NCC1CCCO1)c1ccccc1` (stereo not drawn), the “hERG current change (%, negative = inhibition) at 10uM” value was 4.37%.
As to `O=C(C1CCCO1)N1CCN(C(=S)Nc2ccccc2Cl)CC1` (stereo not drawn), the “hERG current change (%, negative = inhibition) at 10uM” value was found to be 2.65%.
Take `CCCc1cc(=O)[nH]c2nnc(SCC(=O)Nc3ccc(NC(C)=O)cc3)n12`: the “hERG current change (%, negative = inhibition) at 10uM” value came out at 8.01%.
Regarding `NC(=O)C1CCN(S(=O)(=O)c2ccccc2[N+](=O)[O-])CC1`, the “hERG current change (%, negative = inhibition) at 10uM” value turned out to be 16.1%.
On to `CCc1ccc(OCC(O)Cn2c(N3CCCCC3)nc3c2c(=O)[nH]c(=O)n3C)cc1` (stereo not drawn), for which the “hERG current change (%, negative = inhibition) at 10uM” value is on record as -23.4%.
For `CCCCNC(=O)COC(=O)c1cc(C)nc2ccccc12`, the “hERG current change (%, negative = inhibition) at 10uM” value is listed as -2.15%.
Take `COc1ccc(C2CC(c3ccc4ccccc4c3)=NN2C(=O)CSc2ncccn2)cc1` (stereo not drawn): the “hERG current change (%, negative = inhibition) at 10uM” value is on record as 8.85%.
For `CCCCCNC(=O)c1ccc2c(=O)n(CC3CCCO3)c(=O)[nH]c2c1` (stereo not drawn), the “hERG current change (%, negative = inhibition) at 10uM” value turned out to be 8.23%.
Regarding `CCOC(=O)N1CCC(N2C(=O)c3ccccc3C2Nc2ccc(Cl)cn2)CC1` (stereo not drawn), the “hERG current change (%, negative = inhibition) at 10uM” value is recorded as -22.5%.
Turning to `CC(=O)NCCn1c(SCC(=O)NCCC2=CCCCC2)nc2ccccc2c1=O`, the “hERG current change (%, negative = inhibition) at 10uM” value is -18.8%.
Turning to `CC(C)c1nc2c(c(=O)c3ccccc3n2C)c(=O)n1-c1ccc(F)cc1`, the “hERG current change (%, negative = inhibition) at 10uM” value was -16.5%.
The same measure for `COc1ccc(C([O-])=Nc2ccc[n+](-c3nc4ccccc4nc3NS(=O)(=O)c3ccccc3)c2)cc1`: -7.78%.
Turning to `COc1ccc(CCn2c(C)cc(C(=O)CSc3nnc(N)s3)c2C)cc1`, the “hERG current change (%, negative = inhibition) at 10uM” value is 6.03%.
`O=C(CCc1ccccc1)Nc1ccnn1C1CCN(Cc2ccc(OCCO)cc2)CC1`: the “hERG current change (%, negative = inhibition) at 10uM” value is recorded as -65.3%.
The same measure for `Cc1ccc(C)c(NC(=S)N(C)CCc2ccccn2)c1`: 9.73%; for `O=C(Nc1ccc2ccccc2c1)/C(=C/c1cccc(Br)c1)NC(=O)c1ccco1`: -68.6%.
The same measure for `CC(=O)Nc1ccc(C(=O)OCC(=O)c2ccc(C)c([N+](=O)[O-])c2)cc1`: 5.24%; for `Cc1nc2cc(NC(=O)NCc3ccco3)ccc2o1`: 9.7%.
Regarding `Cc1ccc(C)c(NC(=O)CN(C)C(=O)c2ccc(-c3ccc(Cl)cc3)o2)c1`, the “hERG current change (%, negative = inhibition) at 10uM” value turned out to be 1.22%.
Take `CCc1ccccc1Nc1ncnc2ccccc12.Cl`: the “hERG current change (%, negative = inhibition) at 10uM” value was 6.03%.
For the compound `CCN(CC)S(=O)(=O)c1cccc(NC(=O)Nc2cccc(C(F)(F)F)c2)c1`, the “hERG current change (%, negative = inhibition) at 10uM” value is -13.3%.
As to `COc1ccc(-n2c(COc3ccc(C)cc3)nnc2SCC(N)=O)cc1`, the “hERG current change (%, negative = inhibition) at 10uM” value is reported as -5.01%.
With `O=C(O)c1ccc(-n2nnnc2SCc2ccccc2Br)cc1`, the “hERG current change (%, negative = inhibition) at 10uM” value amounted to 8.43%.
In the case of `CCOC(=O)C1CCCN(C(=O)c2cc(S(=O)(=O)N3CCCCC3)c[nH]2)C1` (stereo not drawn) it was 14.5%.
The same measure for `CCOc1cc(C(C(=O)NCC2CCCO2)N(C(=O)Cn2nnc3ccccc32)c2ccc(C(C)=O)cc2)ccc1O` (stereo not drawn): 14.5%; for `CCC(CC)C(=O)N1CCN(Cc2nc3ccccc3c(=O)[nH]2)CC1`: -11.3%.
In the case of `CC(CCc1ccccc1)NC(=O)c1ccc(NC(=O)c2ccccc2)cc1` (stereo not drawn), the “hERG current change (%, negative = inhibition) at 10uM” value was determined as 10.5%.
On to `COc1cccc2c1OC[C@@H](CO)[C@H]2N(C)C(=O)Nc1ccc(Cl)cc1Cl`, for which the “hERG current change (%, negative = inhibition) at 10uM” value was -48.1%.
Regarding `O=C(NCc1ccccc1Cl)c1cc([N+](=O)[O-])ccc1Cl`, the “hERG current change (%, negative = inhibition) at 10uM” value is 1.47%.
Turning to `O=C(NCc1ccccc1Cl)c1ccc(-c2ccccc2)cc1`, the “hERG current change (%, negative = inhibition) at 10uM” value came to 1.37%.
Regarding `CCC(C)[C@H](NC(=O)N1c2ccccc2NC(=O)[C@@H]1C(C)C)C(=O)N[C@@H](Cc1ccccc1)C(=O)O` (stereo partly drawn), the “hERG current change (%, negative = inhibition) at 10uM” value stood at 6.95%.
For `O=S(=O)(c1ccccc1)c1nnn2c1nc(NC1CCN(Cc3ccccc3)CC1)c1cc(Cl)ccc12`, the “hERG current change (%, negative = inhibition) at 10uM” value is listed as -19.1%.
Consider `Cc1cc(NN)nc(NS(=O)(=O)c2ccccc2)n1`, for which the “hERG current change (%, negative = inhibition) at 10uM” value is given as 25.7%.
The same measure for `Cc1cccc(C)c1NC(=S)/N=C/N(C)C`: 23.1%.
